Test results: the supplement of paper PMC4604168 (melanoma cell lines)
The list shows a part of the results. Single values are uncertain, as repeats are few or missing.

How the values were obtained:
Experiment in all cases: cell count relative to DMSO control; melanoma cells; higher = more viable cells
Details in all cases: library dose: standard library concentration; 72 h
G361 = tested on: G361
IPC-298 = tested on: IPC-298
IST-MEL1 = tested on: IST-MEL1
LB2518-MEL = tested on: LB2518-MEL
LOXIMVI = tested on: LOXIMVI
MEL-HO = tested on: MEL-HO
MZ2-MEL = tested on: MZ2-MEL
MeWo = tested on: MeWo
RPMI7951 = tested on: RPMI7951
RVH-421 = tested on: RVH-421
SkMel28 = tested on: SkMel28
SkMel2 = tested on: SkMel2
SkMel30 = tested on: SkMel30
SkMel5 = tested on: SkMel5
UACC257 = tested on: UACC257
UACC62 = tested on: UACC62
WM115 = tested on: WM115
WM1716 = tested on: WM1716
WM3526 = tested on: WM3526
WM1745 = tested on: WM1745
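Further: cells treated in 1,536-well plates, then fixed and DAPI-stained, with nuclei counted from automated high-throughput microscope images.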

SMILES	cell count (G361)	cell count (IPC-298)	cell count (IST-MEL1)	cell count (LB2518-MEL)	cell count (LOXIMVI)	cell count (MEL-HO)	cell count (MZ2-MEL)	cell count (MeWo)	cell count (RPMI7951)	cell count (RVH-421)	cell count (SkMel28)	cell count (SkMel2)	cell count (SkMel30)	cell count (SkMel5)	cell count (UACC257)	cell count (UACC62)	cell count (WM115)	cell count (WM1716)	cell count (WM3526)	cell count (WM1745)
CN1CCN(c2ccc3nc(-c4c(N)c5c(F)cccc5[nH]c4=O)[nH]c3c2)CC1 [Dovitinib] + CCCCCCCCCCCC1=C(O)C(=O)C=C(O)C1=O [Embelin] (first compound 0.5 µM, partner dose 6 µM)	51.8%	38.7%	47.1%	39.3%	91.1%	53.4%	37.6%	47.4%	58.9%	81%	55.7%	48.9%	62%	64.4%	64.3%	48.8%	62.1%	68.7%	73.1%	
C=CCNC1=C2C[C@@H](C)C[C@H](OC)[C@H](O)[C@@H](C)/C=C(\C)[C@H](OC(N)=O)[C@@H](OC)/C=C\C=C(/C)C(=O)NC(=CC1=O)C2=O [Tanespimycin] + COc1ccc(COc2ccc(Cc3cnc(N)nc3N)cc2OC)cc1 [GW2580] (first compound 0.01 µM, partner dose 5 µM)	69.1%	86.4%	61.5%	84.1%	204%	84%	83.7%	75.9%	28.9%	83.5%	94%	85.5%	123%	69.5%	86.2%	68.9%	20.5%	90.3%	79.5%	
C[C@@H](Oc1cc(-c2cnn(C3CCNCC3)c2)cnc1N)c1c(Cl)ccc(F)c1Cl [Crizotinib] + Cc1cc([N+](=O)[O-])ccc1NS(=O)(=O)c1cc(Cl)ccc1Cl [FH535] (first compound 1 µM, partner dose 5 µM)	44.6%	51.7%	59.8%	68.8%	62.8%	50%	67.2%	64.8%	70.1%	59%	43.1%	67.5%	83.6%	54.3%	53.8%	72.9%	43.6%	66.4%	60.7%	
C[C@@H](Oc1cc(-c2cnn(C3CCNCC3)c2)cnc1N)c1c(Cl)ccc(F)c1Cl [Crizotinib] + C#Cc1cccc(Nc2ncnc3cc(OCCOC)c(OCCOC)cc23)c1 [erlotinib] (first compound 1 µM, partner dose 4 µM)	70.4%	64.2%	95.1%	55.7%	108%	83%	70.5%	55.5%	76.3%	16.6%	43.4%	74.8%	72.6%	61.7%	94.1%	51.7%	38.5%	78.2%	57%	47.2%
C=CCNC1=C2C[C@@H](C)C[C@H](OC)[C@H](O)[C@@H](C)/C=C(\C)[C@H](OC(N)=O)[C@@H](OC)/C=C\C=C(/C)C(=O)NC(=CC1=O)C2=O [Tanespimycin] + Cc1nc(Nc2ncc(C(=O)Nc3c(C)cccc3Cl)s2)cc(N2CCN(CCO)CC2)n1 [dasatanib] (first compound 0.01 µM, partner dose 0.02 µM)	59.1%	86.2%	46.2%	75%	41.1%	74.8%	60.8%	82.5%	8.52%	80.9%	66.7%	93.3%	105%	69.5%	98.5%	55.3%	26.1%	99.3%	72.5%	11.7%
C[C@@H](Oc1cc(-c2cnn(C3CCNCC3)c2)cnc1N)c1c(Cl)ccc(F)c1Cl [Crizotinib] + COc1ccc(Cl)c(Nc2nc3ccccc3nc2NS(=O)(=O)c2cccc(NC(=O)C(C)(C)N)c2)c1 [XL147] (first compound 1 µM, partner dose 4 µM)	71.2%	81.6%	68.4%	71%	137%	66.6%	88.6%	74.8%	96.8%	84.2%	72.5%	82.7%	104%	81.1%	72.7%	89.1%	73.7%	89.6%	84.4%	61.2%
C[C@@H](Oc1cc(-c2cnn(C3CCNCC3)c2)cnc1N)c1c(Cl)ccc(F)c1Cl [Crizotinib] + O=C(O)c1ccc2c(c1)nc(Nc1cccc(Cl)c1)c1ccncc12 [CX4945] (first compound 1 µM, partner dose 2 µM)	61.6%	68.8%	73.1%	86.2%	70.8%	52.7%	69.4%	74.3%	56.8%	69.3%	95.7%	74%	77.6%	56.8%	81.7%	62.8%	51.6%	87.8%	63.5%	56.7%
CS(=O)(=O)CCNCc1ccc(-c2ccc3ncnc(Nc4ccc(OCc5cccc(F)c5)c(Cl)c4)c3c2)o1 [lapatinib] + Cc1nc(Nc2ncc(C(=O)Nc3c(C)cccc3Cl)s2)cc(N2CCN(CCO)CC2)n1 [dasatanib] (first compound 4 µM, partner dose 0.02 µM)	67.9%	79.1%	73.1%	80.3%	18.7%	71.7%	46.2%	74.8%	24.7%	71%	85.7%	77.7%	80.5%	53.5%	80.7%	51.2%	69.2%	60.8%	82.7%	31.3%
CNC(=O)c1cc(Oc2ccc(NC(=O)Nc3ccc(Cl)c(C(F)(F)F)c3)cc2)ccn1 [sorafenib] + Cn1cc(/C=C2\C(=O)Nc3cccnc32)c2ccccc21 [GW441756] (first compound 2 µM, partner dose 2 µM)	83.9%	92.2%	106%	97.1%	109%	91.2%	116%	81.4%	72.5%	116%	106%	91%	105%	65.9%	78.7%	107%	122%	119%	93.6%	
CNC(=O)c1cc(Oc2ccc(NC(=O)Nc3ccc(Cl)c(C(F)(F)F)c3)cc2)ccn1 [sorafenib] + O=C(CCCCCCC(=O)Nc1ccccc1)NO [vorinostat] (first compound 2 µM, partner dose 0.4 µM)	94.3%	87.5%	114%	77.9%	139%	97.8%	137%	82.1%	82.8%	77.7%	73.3%	77.8%	84.7%	64%	78.3%	76.4%	139%	123%	78.7%	87%
CNC(=O)c1cc(Oc2ccc(NC(=O)Nc3ccc(Cl)c(C(F)(F)F)c3)cc2)ccn1 [sorafenib] + COc1ccc2c(c1)CCC1C2CCC2(C)C(NCCCCCCN3C(=O)C=CC3=O)CCC12 [U73122] (first compound 2 µM, partner dose 2 µM)	59.8%	98%	96.1%	96.4%	111%	98%	93.4%	56.8%	22.7%	90.5%	76.3%	84.2%	65.8%	93.4%	77.3%	61.5%	81.2%	82.9%	83.9%	
C[C@@H](Oc1cc(-c2cnn(C3CCNCC3)c2)cnc1N)c1c(Cl)ccc(F)c1Cl [Crizotinib] + O=C(O)c1ccc(-c2c[nH]c3ncc(-c4ccccc4)cc23)cc1C1CCCC1 [GSK650394] (first compound 1 µM, partner dose 0.8 µM)	59.4%	76.9%	58.3%	90.9%	102%	63.7%	104%	76.2%	67.7%	88.6%	65.8%	65.7%	88.2%	84.5%	65.1%	82.6%	59%	78.9%	60.7%	63.5%
CN1CCN(c2ccc3nc(-c4c(N)c5c(F)cccc5[nH]c4=O)[nH]c3c2)CC1 [Dovitinib] + Cn1nnc2c(C(N)=O)ncn2c1=O [temozolomide] (first compound 0.5 µM, partner dose 10 µM)	58.3%	62.7%	52.6%	54.6%	85.1%	57.3%	46%	54.4%	86.1%	66%	41.3%	70.8%	65.1%	64.5%	81.7%	59.6%	50%	59.2%	61.2%	52.1%
CS(=O)(=O)CCNCc1ccc(-c2ccc3ncnc(Nc4ccc(OCc5cccc(F)c5)c(Cl)c4)c3c2)o1 [lapatinib] + O=C(CCCCCCC(=O)Nc1ccccc1)NO [vorinostat] (first compound 4 µM, partner dose 0.4 µM)	42.2%	89.5%	83.4%	82.7%	90.3%	64.8%	64.9%	78.1%	30.9%	86.7%	51.6%	61.3%	58.1%	62.8%	75.5%	62%	83.3%	84.8%	65.5%	75.5%
C=CCNC1=C2C[C@@H](C)C[C@H](OC)[C@H](O)[C@@H](C)/C=C(\C)[C@H](OC(N)=O)[C@@H](OC)/C=C\C=C(/C)C(=O)NC(=CC1=O)C2=O [Tanespimycin] + O=C(Nc1ccccc1)c1cc([N+](=O)[O-])ccc1Cl [GW9662] (first compound 0.01 µM, partner dose 10 µM)	42.3%	90.2%	55.1%	62.7%	72%	73.6%	81.4%	59.2%	24.5%	71.2%	35.7%	98.3%	89.4%	61.6%	82.8%	64.7%	26.8%	73.8%	90.4%	
CS(=O)(=O)CCNCc1ccc(-c2ccc3ncnc(Nc4ccc(OCc5cccc(F)c5)c(Cl)c4)c3c2)o1 [lapatinib] + O=C(Nc1ccccc1)c1cc([N+](=O)[O-])ccc1Cl [GW9662] (first compound 4 µM, partner dose 10 µM)	62.1%	87.7%	23.3%	83.6%	84.8%	70%	58.8%	65.8%	58.6%	65.8%	74.4%	88.8%	91.2%	59.5%	84.2%	47.9%	69.3%	83.9%	74.1%	
